Assay results: US20230159603A1

Key:
[1] = molecular target: CD122-Fc (UniProt P14784); experiment: SPR, construct immobilised by amine coupling, CD122-Fc flowed, 25 C
[2] = molecular target: CD122-Fc (UniProt P14784); experiment: SPR, construct immobilised, CD122-Fc flowed (row repeats r10)

Sequence of UniProt P14784 (P14784 27-239 limits assumed): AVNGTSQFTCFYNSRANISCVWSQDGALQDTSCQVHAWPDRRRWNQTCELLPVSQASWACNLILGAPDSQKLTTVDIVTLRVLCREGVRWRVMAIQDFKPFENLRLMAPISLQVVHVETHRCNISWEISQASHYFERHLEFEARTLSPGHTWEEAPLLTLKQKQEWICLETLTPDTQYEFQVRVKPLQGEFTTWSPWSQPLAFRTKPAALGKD

Kd [1]: 110 nM | Kd [2]: 110 nM
B1: AK035 (Fc fusion, from a related filing)
chain: [human IgG1 Fc with changes left out here]PTSSSTKKTQLQLEHLLLDLQMILNGINNYKNPKLTAMLTAKFAMPKKATELKHLQCLEEALKPLEEVLNLAQSKNFHLRPRDLISNINVIVLELKGSETTFMCEYADETATIVEFLNRWITFAQSIISTLT
